The list shows a part of the results.
Columns and labels:
Experiment in all cases: glycan array binding signal (z-score within array); higher = stronger binding
Conditions in all cases: glycan notation: IUPAC condensed, linker removed
Gal(b1-4)Glc = biological target: Gal(b1-4)Glc
In short: (§1)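 Glycan array binding is given as a within-array Z-score, which can be read as non-binding when negative. The arrays, 3228 of them, came from the Consortium for Functional Glycomics database and were retained only where the protein sequence was available. Z-scores were averaged across arrays of the same protein sequence at different concentrations or buffers and across linkers.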

Gal(b1-4)Glc6S = biological target: Gal(b1-4)Glc6S
In short: as §1

Gal(b1-4)GlcNAc = biological target: Gal(b1-4)GlcNAc
In short: as §1

[1] = biological target: Gal(b1-4)GlcNAc(a1-6)Gal(b1-4)GlcNAc
In short: as §1

Gal(b1-4)GlcNAc(b1-2)Man = biological target: Gal(b1-4)GlcNAc(b1-2)Man
In short: as §1

[2] = biological target: Gal(b1-4)GlcNAc(b1-2)Man(a1-3)Man(b1-4)GlcNAc(b1-4)GlcNAc
In short: as §1

[3] = biological target: Gal(b1-4)GlcNAc(b1-2)Man(a1-3)[Gal(b1-4)GlcNAc(b1-2)Man(a1-6)]Man(b1-4)GlcNAc(b1-4)GlcNAc
In short: as §1

[4] = biological target: Gal(b1-4)GlcNAc(b1-2)Man(a1-3)[Gal(b1-4)GlcNAc(b1-2)Man(a1-6)]Man(b1-4)GlcNAc(b1-4)[Fuc(a1-6)]GlcNAc
In short: as §1

[5] = biological target: Gal(b1-4)GlcNAc(b1-2)Man(a1-3)[Gal(b1-4)GlcNAc(b1-2)Man(a1-6)][Gal(b1-4)GlcNAc(b1-4)]Man(b1-4)GlcNAc(b1-4)[Fuc(a1-6)]GlcNAc
In short: as §1

[6] = biological target: Gal(b1-4)GlcNAc(b1-2)Man(a1-3)[Gal(b1-4)GlcNAc(b1-2)Man(a1-6)][GlcNAc(b1-4)]Man(b1-4)GlcNAc(b1-4)[Fuc(a1-6)]GlcNAc
In short: as §1

[7] = biological target: Gal(b1-4)GlcNAc(b1-2)Man(a1-3)[GlcNAc(b1-2)Man(a1-6)]Man(b1-4)GlcNAc(b1-4)GlcNAc
In short: as §1

[8] = biological target: Gal(b1-4)GlcNAc(b1-2)Man(a1-3)[GlcNAc(b1-4)][Gal(b1-4)GlcNAc(b1-2)Man(a1-6)]Man(b1-4)GlcNAc(b1-4)GlcNAc
In short: as §1

[9] = biological target: Gal(b1-4)GlcNAc(b1-2)Man(a1-3)[Man(a1-6)]Man(b1-4)GlcNAc(b1-4)GlcNAc
In short: as §1

[10] = biological target: Gal(b1-4)GlcNAc(b1-2)Man(a1-6)Man(b1-4)GlcNAc(b1-4)GlcNAc
In short: as §1

[11] = biological target: Gal(b1-4)GlcNAc(b1-2)Man(a1-6)[GlcNAc(b1-2)Man(a1-3)]Man(b1-4)GlcNAc(b1-4)GlcNAc
In short: as §1

[12] = biological target: Gal(b1-4)GlcNAc(b1-2)Man(a1-6)[Man(a1-3)]Man(b1-4)GlcNAc(b1-4)GlcNAc
In short: as §1

[13] = biological target: Gal(b1-4)GlcNAc(b1-2)[Gal(b1-4)GlcNAc(b1-4)]Man(a1-3)[Gal(b1-4)GlcNAc(b1-2)Man(a1-6)]Man(b1-4)GlcNAc(b1-4)GlcNAc
In short: as §1

[14] = biological target: Gal(b1-4)GlcNAc(b1-2)[Gal(b1-4)GlcNAc(b1-4)]Man(a1-3)[Gal(b1-4)GlcNAc(b1-2)[Gal(b1-4)GlcNAc(b1-6)]Man(a1-6)]Man(b1-4)GlcNAc(b1-4)GlcNAc
In short: as §1

[15] = biological target: Gal(b1-4)GlcNAc(b1-2)[Gal(b1-4)GlcNAc(b1-4)]Man(a1-3)[GlcNAc(b1-4)][Gal(b1-4)GlcNAc(b1-2)Man(a1-6)]Man(b1-4)GlcNAc(b1-4)GlcNAc
In short: as §1

[16] = biological target: Gal(b1-4)GlcNAc(b1-2)[Gal(b1-4)GlcNAc(b1-4)]Man(a1-3)[GlcNAc(b1-4)][Gal(b1-4)GlcNAc(b1-2)[Gal(b1-4)GlcNAc(b1-6)]Man(a1-6)]Man(b1-4)GlcNAc(b1-4)GlcNAc
In short: as §1

[17] = biological target: Gal(b1-4)GlcNAc(b1-2)[Gal(b1-4)GlcNAc(b1-6)]Man(a1-6)[Gal(b1-4)GlcNAc(b1-2)Man(a1-3)]Man(b1-4)GlcNAc(b1-4)GlcNAc
In short: as §1

[18] = biological target: Gal(b1-4)GlcNAc(b1-2)[Gal(b1-4)GlcNAc(b1-6)]Man(a1-6)[Gal(b1-4)GlcNAc(b1-2)Man(a1-3)]Man(b1-4)GlcNAc(b1-4)[Fuc(a1-6)]GlcNAc
In short: as §1

B1: RBMC2 (Vibrio cholerae) (protein)
chain: KISVRSGFAIDAIGASASTLVGGTGGNLNAAVNVKDIKAIDLTWGKYYWGGYHLLALDFRMSNGSVISMGSKNYAYSKQTERFTVPAGSRIKGIKAWTAGWLLDGVQFELA
- glycan array binding signal (z-score) (Gal(b1-4)Glc): -0.387
- glycan array binding signal (z-score) (Gal(b1-4)Glc6S): -0.178
- glycan array binding signal (z-score) (Gal(b1-4)GlcNAc): -0.367
- glycan array binding signal (z-score) [1]: -0.466
- glycan array binding signal (z-score) (Gal(b1-4)GlcNAc(b1-2)Man): -0.325
- glycan array binding signal (z-score) [2]: -0.272
- glycan array binding signal (z-score) [3]: -0.184
- glycan array binding signal (z-score) [4]: 2.15
- glycan array binding signal (z-score) [5]: -0.242
- glycan array binding signal (z-score) [6]: -0.167
- glycan array binding signal (z-score) [7]: 2.5
- glycan array binding signal (z-score) [8]: -0.15
- glycan array binding signal (z-score) [9]: -0.039
- glycan array binding signal (z-score) [10]: -0.452
- glycan array binding signal (z-score) [11]: 3.21
- glycan array binding signal (z-score) [12]: 0.124
- glycan array binding signal (z-score) [13]: -0.06
- glycan array binding signal (z-score) [14]: 1.6
- glycan array binding signal (z-score) [15]: -0.406
- glycan array binding signal (z-score) [16]: -0.379
- glycan array binding signal (z-score) [17]: 1.41
- glycan array binding signal (z-score) [18]: 0.211

Source: the supplement of paper PMC8728848
